This note sets out measurements from publication PMC5643338.

Protein sequences, listed by entry. Tags and fused reporters are not part of them. Lines headed by an entry give the natural chain unless they say otherwise; changes in a name come on top. Chains listed by the source or under a name are the forms on record and can include a tag or linker. Residues count along the entry.
UniProt Q86WV6: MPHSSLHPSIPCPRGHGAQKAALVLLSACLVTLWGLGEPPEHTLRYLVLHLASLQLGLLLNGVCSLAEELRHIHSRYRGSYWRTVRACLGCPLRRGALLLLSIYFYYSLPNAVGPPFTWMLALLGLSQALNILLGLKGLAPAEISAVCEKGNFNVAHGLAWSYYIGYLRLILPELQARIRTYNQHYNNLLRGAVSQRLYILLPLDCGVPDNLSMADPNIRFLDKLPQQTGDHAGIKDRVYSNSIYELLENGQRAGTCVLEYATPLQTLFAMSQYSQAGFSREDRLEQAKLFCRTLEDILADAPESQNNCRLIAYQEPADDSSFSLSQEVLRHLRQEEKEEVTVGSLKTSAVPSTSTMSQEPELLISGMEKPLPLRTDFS
Myc-tagged STING truncation mutant 1–160: residues 1-160 of Q86WV6
Myc-tagged STING truncation mutant 1–110: residues 1-110 of Q86WV6
Myc-tagged STING truncation mutant aa211–379: residues 211-379 of Q86WV6

Test [1] has as its target T1, Stimulator of interferon genes (STING) (endogenous, mouse dendritic cells) (mouse (endogenous in D2SC and BMDCs)) (UniProt Q3TBT3).
T1 sequence: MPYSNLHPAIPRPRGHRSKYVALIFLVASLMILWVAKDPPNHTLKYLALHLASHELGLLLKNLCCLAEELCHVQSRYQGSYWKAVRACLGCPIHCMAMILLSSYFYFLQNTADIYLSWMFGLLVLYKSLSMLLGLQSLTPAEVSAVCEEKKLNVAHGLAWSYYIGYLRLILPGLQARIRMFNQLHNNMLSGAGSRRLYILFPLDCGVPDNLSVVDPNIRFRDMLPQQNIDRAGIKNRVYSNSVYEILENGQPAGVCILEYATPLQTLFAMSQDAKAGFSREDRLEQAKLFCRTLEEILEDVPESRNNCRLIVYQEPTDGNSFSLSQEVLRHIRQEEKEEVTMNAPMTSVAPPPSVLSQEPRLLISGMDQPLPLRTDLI
Put plainly: co-IP; endogenous proteins; whole-cell lysates of BMDCs from WT mice without HSV-60 stimulation, then MG132 for 3 h; precipitated with anti-STING, blot for TRIM29.

In test [2] the target is T1, Stimulator of interferon genes (STING) (endogenous, mouse dendritic cells) (mouse (endogenous in D2SC and BMDCs)). Kind of test: co-IP; endogenous proteins; whole-cell lysates of BMDCs from WT mice stimulated with HSV-60 (2.5 μg/ml) for 8 h, then MG132 for 3 h; precipitated with anti-STING or control IgG, blot for TRIM29.
Test [3] addresses Myc-tagged recombinant full-length STING (UniProt Q86WV6). Put plainly: pull-down; in vitro: purified HA-tagged TRIM29 (or truncations) incubated for 2 h with purified Myc-tagged STING (or truncations), anti-Myc beads for 2 h, blot with anti-HA; both purified.
In test [4] the target is Myc-tagged STING truncation mutant aa211–379 (UniProt Q86WV6). The test is described as above.
Test [5] concerns the target Myc-tagged STING truncation mutant 1–160 (UniProt Q86WV6). Described as above.
In test [6] the target is Myc-tagged STING truncation mutant 1–110 (UniProt Q86WV6). Described as above.

Results are given in words; binding and its absence hold for the method and conditions named. For part of these data: In cells and extracts the contact can be indirect. Some binding calls cover weakened binding; strength is not graded here. For part of these data: Tags and fused reporters may be left off the sequences shown.

B1: TRIM29 (endogenous, mouse dendritic cells) (protein, UniProt Q8R2Q0 1-587)
chain: MEGADACRSNGASPEARDTRSPPGPSGSLENGTKADSKDTKTTNGHSGEVTEGKTLGSALKSGEGKSGLFSSNEWRRPIIQFVESVDDKGSSYFSMDSAEGRRSPYAGLQLGASKKPPVTFAEKGELRKSIFSEPRKPTVTIVEPGEVRRNSYPRADSSLLARAKSGSEEVLCDSCIGNKQKAVKSCLVCQASFCELHLKPHLEGAAFRDHQLLEPIRDFEARKCPLHGKTMELFCQTDQTCICYLCMFQEHKNHSTVTVEEAKAEKETELSLQKEQLQLKIIEIEDDVEKWQKEKDRIKSFTTNEKAILEQNFRDLVRELEKQKEEVRAALEQREQDAVDQVKVIVDALDERAKVLHEDKQTREQLHNISDSVLFLQEFGALMSNYSLPPPLPTYHVLLEGEGLGQSLGNCKDDLLNVCMRHVEKMCKADLSRNFIERNHMENGGDHRYMNSYTSSYGNEWSTPDTMKRYSMYLTPKGGGRTSYQPSSPSRLSKETNQKNFNNLYGTKGNYTSRVWEYTSTVQNSEDMPTVQGNSSFSLKGFPSLLRSQVPKAQPQTWKSGKQTLLSHYRPFYVNKGSGIGSNEAP
On to B1, for which the binding entry in test [1] is recorded as “no binding (condition: without dsDNA stimulation)”; in test [2] it was “binds”.

B2: HA-tagged recombinant full-length TRIM29 (protein, UniProt Q14134 1-588)
chain: MEAADASRSNGSSPEARDARSPSGPSGSLENGTKADGKDAKTTNGHGGEAAEGKSLGSALKPGEGRSALFAGNEWRRPIIQFVESGDDKNSNYFSMDSMEGKRSPYAGLQLGAAKKPPVTFAEKGELRKSIFSESRKPTVSIMEPGETRRNSYPRADTGLFSRSKSGSEEVLCDSCIGNKQKAVKSCLVCQASFCELHLKPHLEGAAFRDHQLLEPIRDFEARKCPVHGKTMELFCQTDQTCICYLCMFQEHKNHSTVTVEEAKAEKETELSLQKEQLQLKIIEIEDEAEKWQKEKDRIKSFTTNEKAILEQNFRDLVRDLEKQKEEVRAALEQREQDAVDQVKVIMDALDERAKVLHEDKQTREQLHSISDSVLFLQEFGALMSNYSLPPPLPTYHVLLEGEGLGQSLGNFKDDLLNVCMRHVEKMCKADLSRNFIERNHMENGGDHRYVNNYTNSFGGEWSAPDTMKRYSMYLTPKGGVRTSYQPSSPGRFTKETTQKNFNNLYGTKGNYTSRVWEYSSSIQNSDNDLPVVQGSSSFSLKGYPSLMRSQSPKAQPQTWKSGKQTMLSHYRPFYVNKGNGIGSNEAP
B2: the binding result was “binds” in test [3], “no binding” in test [4], “no binding” in test [5] and “no binding” in test [6].
